Experimental data: the supplement of paper PMC10126150
Values marked as one replicate rest on one cluster of the flow cell; about a third of the high ones do not repeat.

system: ATP; test: switch fluorescence ratio, 500 uM ATP over buffer (Cy3 cluster intensity, sum of 5 cycles each) (fold (ratio)); higher = stronger signal-on switching upon ATP binding; sequences stand for … in TCGTCGGCAGCGTCAGATGTGTATAAGAGACAGTTTTTTTTTTTTTTTTTTTTTTTTT…TC; settings: aptamer strand: ATP DNA aptamer (quencher-CACCTGGGGGAGTATTGCGGAGGAAGG + anchor), 100 nM annealed; ATP concentration: 500 uM; one replicate
In short: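 Imaging in selection buffer was followed by imaging after 15 min with 500 uM ATP at 22 °C, for Cy3-labelled switching-strand clusters annealed to 100 nM quencher-labelled ATP aptamer on a modified Illumina MiSeq flow-cell. Five of these buffer/ATP cycles ran, separated by NaOH stripping and re-annealing. The fluorescence ratio per cluster is summed target-cycle over summed buffer-cycle Cy3 intensity, averaged per switch-domain sequence; clusters outside 100-1000 RFU were removed.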
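Note: ATP exposure 15 min at 22 °C before imaging.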

| Sequence | switch fluorescence ratio |
| --- | --- |
| ACAGGAGGTA | 0.979 |
| ACAGGCGGAG | 1.01 |
| ACAGGGGGG | 0.992 |
| ACAGGGTCTA | 1.05 |
| ACAGGTAAAG | 0.991 |
| ACAGGTCGG | 1.17 |
| ACAGGTCGTC | 1.01 |
| ACAGGTGGCG | 1 |
| ACAGGTTCCT | 1.09 |
| ACAGGTTTGT | 0.973 |
| ACAGTAATGT | 1.02 |
| ACAGTAGACG | 0.983 |
| ACAGTGAGGC | 1.03 |
| ACAGTGGCAA | 0.947 |
| ACAGTGTAT | 1.05 |
| ACAGTGTCAC | 0.964 |
| ACAGTTATTT | 0.988 |
| ACAGTTCGCC | 0.938 |
| ACAGTTTTTA | 1 |
| ACATAAAAAG | 1.07 |
| ACATACGAAA | 1.43 |
| ACATACTAAG | 1.34 |
| ACATACTTGA | 1.13 |
| ACATAGCCCG | 1.02 |
| ACATAGGAAA | 0.998 |

| Sequence | switch fluorescence ratio |
| --- | --- |
| ACATAGTTAT | 1.01 |
| ACATATGGAG | 1 |
| ACATATTCTT | 1.04 |
| ACATCACTGC | 1.33 |
| ACATCAGATT | 1.01 |
| ACATCCGGGG | 1.08 |
| ACATCCTGGA | 1.02 |
| ACATCGATTA | 1.04 |
| ACATCTAAAA | 0.973 |
| ACATCTAGTC | 1.01 |
| ACATCTCACT | 1.12 |
| ACATCTTGAC | 1.08 |
| ACATGAGATC | 1.09 |
| ACATGAGTTG | 1.07 |
| ACATGATTGT | 0.982 |
| ACATGCCAAG | 1.05 |
| ACATGCTTTG | 1.04 |
| ACATGGGTTT | 0.973 |
| ACATGTAAAT | 0.999 |
| ACATGTCCCG | 1.01 |
| ACATGTCGCT | 1.06 |
| ACATGTGCCA | 1 |
| ACATGTTGCA | 1.06 |
| ACATTATAA | 1.01 |
| ACATTCAAAT | 1.15 |

| Sequence | switch fluorescence ratio |
| --- | --- |
| ACATTGGGTG | 1.08 |
| ACATTGTAAT | 0.928 |
| ACATTGTGGG | 1 |
| ACATTGTTGC | 0.988 |
| ACATTTAGTT | 1 |
| ACATTTGCGT | 0.962 |
| ACATTTGTGA | 1.04 |
| ACATTTTGTC | 1 |
| ACCAAACACT | 1.11 |
| ACCAAAGCCC | 1.03 |
| ACCAACGCAT | 2.13 |
| ACCAATATTT | 0.987 |
| ACCAATCCTA | 1.03 |
| ACCAATTAGT | 0.984 |
| ACCACAATGG | 1.11 |
| ACCACAATTA | 1.06 |
| ACCACCTAGC | 1.17 |
| ACCACGCCAA | 1.64 |
| ACCACGGCGG | 1.03 |
| ACCACGGTTA | 1.08 |
| ACCACTGGGA | 1.04 |
| ACCAGACTAT | 1.02 |
| ACCAGCTCCG | 1.25 |
| ACCAGGGAAT | 1.03 |
| ACCAGGGTCT | 1.05 |

| Sequence | switch fluorescence ratio |
| --- | --- |
| ACCAGTTCC | 1.13 |
| ACCATAGCCC | 1.18 |
| ACCATCGCCC | 1.08 |
| ACCATTAAGC | 1.08 |
| ACCATTAGTC | 1.04 |
| ACCCAATCCA | 1.02 |
| ACCCACCTCA | 1.34 |
| ACCCAGATAT | 1.05 |
| ACCCATCCA | 1.03 |
| ACCCCAGTTA | 1.2 |
| ACCCCGAAGG | 1.08 |
| ACCCCGCTCG | 1.18 |
| ACCCCGGATA | 1.07 |
| ACCCCGTGTC | 1.16 |
| ACCCGACCCG | 1.2 |
| ACCCGATGCT | 1.18 |
| ACCCGCAGGG | 1.01 |
| ACCCGGATCC | 1.09 |
| ACCCGTCTCT | 1.01 |
| ACCCTAGTTT | 1.04 |
| ACCCTCCAGT | 1.3 |
| ACCCTCCCAC | 2.4 |
| ACCCTCGCTC | 1.46 |
| ACCCTCTTCT | 1.02 |
| ACCGACAATT | 1.3 |

| Sequence | switch fluorescence ratio |
| --- | --- |
| ACCGACTTAA | 1.32 |
| ACCGACTTCT | 0.982 |
| ACCGAGGGTT | 1.02 |
| ACCGATTAGA | 1.04 |
| ACCGCACTT | 1.57 |
| ACCGCGCAGT | 1.31 |
| ACCGCGGAA | 1.07 |
| ACCGCGTCTA | 1.08 |
| ACCGCTCTCT | 1.31 |
| ACCGCTTTGT | 1.04 |
| ACCGGAAATC | 1.23 |
| ACCGGACTGC | 1.24 |
| ACCGGCAGGC | 1.77 |
| ACCGGCGTGC | 1.04 |
| ACCGGGAGTA | 1.04 |
| ACCGGGCGCG | 1.05 |
| ACCGGGTATA | 0.999 |
| ACCGGTCAGT | 0.982 |
| ACCGGTCCAG | 1.02 |
| ACCGTAAGCC | 1.34 |
| ACCGTACCGA | 1.64 |
| ACCGTCGCT | 1.1 |
| ACCGTGGGCG | 1.03 |
| ACCTAACCCG | 1.92 |
| ACCTAATGGA | 1 |

| Sequence | switch fluorescence ratio |
| --- | --- |
| ACCTATATCA | 1.07 |
| ACCTCAAAGT | 1.02 |
| ACCTCGAGAG | 1.03 |
| ACCTCGCCGT | 1.09 |
| ACCTGAAGGA | 0.985 |
| ACCTGATACT | 1.09 |
| ACCTGTAGGG | 1.08 |
| ACCTGTTTCT | 1.04 |
| ACCTTAAAGC | 1.07 |
| ACCTTATCCG | 1.59 |
| ACCTTATTGC | 1.12 |
| ACCTTCAGCA | 2.53 |
| ACCTTCGGTC | 1.07 |
| ACCTTGAAGT | 1.06 |
| ACCTTGATTT | 1.02 |
| ACCTTGTACG | 1.09 |
| ACCTTTTCTG | 1.03 |
| ACCTTTTGTT | 1.02 |
| ACGAAAGAGA | 1.02 |
| ACGAAAGAGG | 1.04 |
| ACGAACGTAC | 1.66 |
| ACGAACTCAA | 1.77 |
| ACGAAGGCGA | 1.03 |
| ACGAAGTGC | 1.06 |
| ACGAATTTAA | 1.04 |

| Sequence | switch fluorescence ratio |
| --- | --- |
| ACGACAATAA | 3.3 |
| ACGACGGGGC | 2.38 |
| ACGACGTCGG | 1.05 |
| ACGACTCCAA | 1.4 |
| ACGACTTTTC | 1.09 |
| ACGAGACTCT | 1.06 |
| ACGAGGATAT | 1.03 |
| ACGAGGTAGG | 1.05 |
| ACGAGTACGC | 1.03 |
| ACGAGTTTC | 1.01 |
| ACGATAAGGA | 1.03 |
| ACGATAGAAG | 1.07 |
| ACGATCGAGT | 1.03 |
| ACGATCTCTT | 0.951 |
| ACGATTCCTC | 1.18 |
| ACGATTGGA | 0.995 |
| ACGCAAAAGA | 1.19 |
| ACGCACAACT | 1.42 |
| ACGCACCCCT | 1.53 |
| ACGCACTTTC | 1.54 |
| ACGCAGCACC | 4.78 |
| ACGCAGTGC | 1.3 |
| ACGCCGAGCA | 1.08 |
| ACGCCGCGGG | 1.16 |
| ACGCCGGCAT | 1.11 |

| Sequence | switch fluorescence ratio |
| --- | --- |
| ACGCCGTAGA | 1.06 |
| ACGCCTCGCA | 1.25 |
| ACGCCTGCTG | 1.02 |
| ACGCGCGAAT | 0.997 |
| ACGCGGAATC | 1.02 |
| ACGCGGTGTC | 1.06 |
| ACGCGTGACG | 1.06 |
| ACGCTAGTCG | 1.01 |
| ACGCTCAGCA | 1.1 |
| ACGCTGGG | 1.17 |
| ACGCTGTGGG | 1.02 |
| ACGCTTAGTG | 0.957 |
| ACGCTTTCCC | 1.23 |
| ACGGAAAAAA | 1.05 |
| ACGGAAAGAC | 1.27 |
| ACGGACTTGG | 1.08 |
| ACGGAGCTCT | 1.24 |
| ACGGAGTGTG | 1.04 |
| ACGGATACTG | 1.05 |
| ACGGCAAACT | 1.53 |
| ACGGCCAAAG | 1.03 |
| ACGGCCGCTT | 1.11 |
| ACGGCCTCGG | 1.03 |
| ACGGCGAAG | 0.968 |
| ACGGCGCAA | 1.12 |
